In the supplement of paper PMC8285479:
Counter-ions that a name gives are not always drawn. ± gives the standard deviation of the averaged measurements. Shown are results outside the selection of lowest values, which stands elsewhere.

Tested on: NCI-H1944
Assay: normalised cell viability (NPI; 0 = phenylarsine oxide control, 1 = DMSO control) (fraction of DMSO control); NCI-H1944 is a non-small cell lung cancer line; higher = more viable cells (less compound toxicity)
Details: 6 days
[1] = glucocorticoid arm: hydrocortisone 2.75 uM co-treatment, compound 1 µM
[2] = glucocorticoid arm: hydrocortisone 2.75 uM co-treatment, compound 5 µM
[3] = glucocorticoid arm: hydrocortisone 2.75 uM pre-treated 2 days and continued, compound 1 µM
[4] = glucocorticoid arm: hydrocortisone 2.75 uM pre-treated 2 days and continued, compound 5 µM
[5] = glucocorticoid arm: vehicle, compound 1 µM
[6] = glucocorticoid arm: vehicle, compound 5 µM
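Note: CTB read-out in 384-well plates, triplicate wells, NPI normalised per plate against 1 µM phenylarsine oxide (0) and 0.1% DMSO (1) controls.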

| Structure (SMILES) | normalised cell viability [1] | normalised cell viability [2] | normalised cell viability [3] | normalised cell viability [4] | normalised cell viability [5] | normalised cell viability [6] |
| --- | --- | --- | --- | --- | --- | --- |
| Cc1ccc(C(=O)NCCCCCC(=O)Nc2ccccc2N)cc1 | 0.99 ± 0.019 | 1.03 ± 0.045 | 0.99 ± 0.014 | 1.05 ± 0.01 | 0.996 ± 0.013 | 0.9213 ± 0.009 |
| Cc1nc2c(-c3cnc(N)nc3)nc(N3CCOCC3)nc2n1C(C)C | 0.291 ± 0.034 | 0.192 ± 0.01 | 0.37 ± 0.039 | 0.315 ± 0.071 | 0.154 ± 0.015 | 0.0743 ± 0.012 |
| CN1[C@@H]2CC[C@H]1C[C@@H](OC(=O)C(O)c1ccccc1)C2 (mixture of isomers) [DL-Homatropine hydrobromide] | 0.997 ± 0.0052 | 0.978 ± 0.014 | 1 ± 0.011 | 0.982 ± 0.026 | 1.002 ± 0.0076 | 1.006 ± 0.0063 |
| CN1C2CCC1CC(OC(=O)C(O)c1ccccc1)C2 (stereo not given) [Homatropine Bromide] | 1 ± 0.011 | 0.9883 ± 0.0086 | 1 ± 0.011 | 1 ± 0.033 | 1.006 ± 0.0063 | 1.01 |
| Cc1ccccc1-n1c(Cn2nc(-c3cccc(O)c3)c3c(N)ncnc32)nc2cccc(C)c2c1=O | 0.882 ± 0.021 | 0.888 ± 0.013 | 0.876 ± 0.004 | 0.813 ± 0.046 | 0.915 ± 0.021 | 0.9387 ± 0.008 |
